44 compounds from PMC4336329 (PLoS ONE, 2015) can be followed below.

In all, about 310,000 compounds went through this assay and about 2,200 (0.71%) showed an effect of 50% or more. Effects have a minus sign here. The list shows a part of the results.

The test deals with human ether-à-go-go-related gene (hERG) potassium channel (human, UniProt Q12809). As to the kind of experiment: primary screen, population patch clamp on CHO cells stably expressing hERG.
Sequence of human ether-à-go-go-related gene (hERG) potassium channel (Q12809 whole entry, looked up): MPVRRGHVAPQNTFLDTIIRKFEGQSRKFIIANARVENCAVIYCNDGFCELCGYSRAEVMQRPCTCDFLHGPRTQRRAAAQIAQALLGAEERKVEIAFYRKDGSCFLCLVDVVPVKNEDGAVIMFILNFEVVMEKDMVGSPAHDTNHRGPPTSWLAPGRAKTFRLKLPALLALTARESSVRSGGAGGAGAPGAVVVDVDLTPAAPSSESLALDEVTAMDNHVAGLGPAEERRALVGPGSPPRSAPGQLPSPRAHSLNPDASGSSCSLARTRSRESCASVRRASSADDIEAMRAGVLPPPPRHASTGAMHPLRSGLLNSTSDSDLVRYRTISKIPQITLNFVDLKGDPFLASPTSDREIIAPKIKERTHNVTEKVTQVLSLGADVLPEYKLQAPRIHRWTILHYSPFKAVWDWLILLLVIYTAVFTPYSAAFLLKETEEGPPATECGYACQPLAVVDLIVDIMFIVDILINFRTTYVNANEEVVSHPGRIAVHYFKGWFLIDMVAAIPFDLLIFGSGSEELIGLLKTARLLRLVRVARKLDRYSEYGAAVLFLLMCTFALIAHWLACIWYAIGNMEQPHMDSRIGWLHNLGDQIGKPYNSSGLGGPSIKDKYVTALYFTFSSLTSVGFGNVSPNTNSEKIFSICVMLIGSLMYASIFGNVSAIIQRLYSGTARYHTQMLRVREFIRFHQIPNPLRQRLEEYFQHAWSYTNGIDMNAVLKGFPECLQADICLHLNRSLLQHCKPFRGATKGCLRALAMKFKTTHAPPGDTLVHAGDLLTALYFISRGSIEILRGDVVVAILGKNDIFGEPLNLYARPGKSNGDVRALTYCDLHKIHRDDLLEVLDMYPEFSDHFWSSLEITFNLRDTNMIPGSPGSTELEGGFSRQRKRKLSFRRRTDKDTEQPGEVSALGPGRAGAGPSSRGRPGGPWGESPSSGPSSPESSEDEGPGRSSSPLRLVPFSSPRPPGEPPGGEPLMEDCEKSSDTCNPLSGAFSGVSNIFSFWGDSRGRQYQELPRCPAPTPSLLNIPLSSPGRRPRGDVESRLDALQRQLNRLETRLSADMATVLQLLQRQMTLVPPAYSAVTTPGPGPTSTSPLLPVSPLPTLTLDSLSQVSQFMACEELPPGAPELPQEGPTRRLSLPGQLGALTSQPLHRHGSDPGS
For `CN(C)/C=C1\NC(=S)N(c2ccccc2)C1=O`, the “hERG current change (%, negative = inhibition) at 1uM” value was determined as 16.9%. The value for `CCC1C(=O)N=C(SCC(=O)Nc2ccccc2)NC1=O` (centres unmarked) was 9.52%. The value for `N#Cc1cnn2ccc(-c3ccc4c(c3)CCC4)nc12` was 17.1%; that for `CC(=O)c1c(C)[nH]c(C(=O)Nc2ccc(Cl)c(S(=O)(=O)N(C)C)c2)c1C` was 5.16%; that for `Cc1c(C(=O)NC2CCC(C)CC2)oc2ccccc12` (centres unmarked) was 4.4%.

In the case of `COc1ccc(NC(=O)CN(C)C(=O)CCCc2nc3ccccc3s2)cc1`, the “hERG current change (%, negative = inhibition) at 1uM” value is -15.7%. To `O=C(Oc1ccc(Cl)c2cccnc12)c1cccc([N+](=O)[O-])c1` belongs -2.35%. As for `Cn1c(Cc2ccccc2)nnc1SCC(=O)Nc1cccc(S(=O)(=O)NC2=NCCCCC2)c1`, the “hERG current change (%, negative = inhibition) at 1uM” value turned out to be 0.421%. The value for `CSc1cnn(Cc2ccccc2)c(=O)c1SCc1ccccc1` was 5.14%; that for `Nc1n[nH]c(C2CCCCC2)n1` was 18.7%.

In the case of `O=[N+]([O-])c1ccc2c(c1)Nc1nc3ccccc3nc1N2`, the “hERG current change (%, negative = inhibition) at 1uM” value is 12.7%. For `CCn1nc(NS(=O)(=O)c2ccc(C)cc2)c2cc3ccccc3nc21`, the “hERG current change (%, negative = inhibition) at 1uM” value was 15.2%. Turning to `Cc1ccc(NC(=O)NC2CCCc3ccccc32)cc1` (centres unmarked), the “hERG current change (%, negative = inhibition) at 1uM” value is 4.74%. To `COc1ccc(C(=O)N2CCN(Cc3cc(OC)ccc3OC)CC2)cc1.O=C(O)C(=O)O` belongs -12.2%. To `Cc1ccc(OCC(=O)NC(=S)Nc2ccc(Br)cn2)cc1` belongs 15.3%; to `CCOC(=O)c1c(-c2ccccc2)oc2ccc(OCC(O)CNCCN(C)C)cc12` (centres unmarked), 9.84%; to `CCOC(=O)c1c(NC(=O)CN2CCN(C(=O)c3ccco3)CC2)sc(C(N)=O)c1C`, 5.04%. To `CCC(=O)Nc1c(C)c(CC)nc2ccccc12` belongs -6.64%; to `COc1cccc(C2(O)CCN(C(=O)Cc3cccnc3)CC2)c1`, 14.1%. Take `Cc1ccccc1NC(=O)c1sc2nc[nH]c(=O)c2c1C`: the “hERG current change (%, negative = inhibition) at 1uM” value was found to be 13.9%. To `Cn1c(Cn2c(=O)sc3ccccc32)nnc1SCC(=O)NCCc1ccccc1` belongs 3.23%; to `CC1CCCCC1NC(=O)CSC1=Nc2ccccc2C2CC=NN12` (centres unmarked), 0.298%.

Turning to `CCCCN(CCCC)S(=O)(=O)c1ccc(C(=O)Nc2nnc(CSC)o2)cc1`, the “hERG current change (%, negative = inhibition) at 1uM” value stood at 3.39%. To `COC(=O)NNC(=S)NCc1ccccc1` belongs 7.51%; to `Cc1ccc(NC(=O)CSc2n[nH]c(-c3ccncc3)n2)cc1C`, 15.6%; to `CCc1ccc(N(C(=O)c2snc(C(N)=O)c2N)C(C(=O)NCCC(C)C)c2c[nH]c3ccccc23)cc1` (centres unmarked), 2.59%. `COc1ccc(NC(=O)CC2SC(=NCC3CCCO3)NC2=O)c([N+](=O)[O-])c1` (centres unmarked): the “hERG current change (%, negative = inhibition) at 1uM” value was 4.6%.

For `CC(C)Sc1oc(-c2ccco2)nc1S(=O)(=O)c1ccc(F)cc1`, the “hERG current change (%, negative = inhibition) at 1uM” value is reported as 2.49%.

Take `COC(=O)Cc1ccc(NC(=S)N2CCN(c3cc(Cl)ccc3C)CC2)cc1`: the “hERG current change (%, negative = inhibition) at 1uM” value is 17.4%.

Take `COc1cc(F)ccc1S(=O)(=O)N1CCN(C23CC4CC(CC(C4)C2)C3)CC1`: the “hERG current change (%, negative = inhibition) at 1uM” value turned out to be 7.16%. In the case of `COc1ccccc1NC(=O)N[C@@H](Cc1c[nH]c2ccccc12)C(=O)NN`, the “hERG current change (%, negative = inhibition) at 1uM” value was 11.6%. Take `CC(C)CNc1oc(-c2ccc(F)cc2)nc1C#N`: the “hERG current change (%, negative = inhibition) at 1uM” value amounted to 11.8%. The value for `C/C(=N\NC(=O)c1ccn(C)n1)c1ccco1` was 4.8%; that for `CC(C)c1ccc(-n2c(O)c(/C=N/N3CCOCC3)c(=O)[nH]c2=S)cc1` was 9.57%. To `COc1cc(/C=C2/C(=N)N3OC(C)=CC3=NC2=O)ccc1OCCOc1ccc(C)cc1` belongs 16.1%. For `Nc1ncc(-c2cc3ccccc3oc2=O)s1`, the “hERG current change (%, negative = inhibition) at 1uM” value amounted to 9.89%. The value for `COC(=O)Nc1ccc(S(=O)(=O)N2CCC(Cc3ccccc3)CC2)cc1` was 1.02%; that for `O=C(Nn1c(C2CCCCC2)nc2ccccc2c1=O)c1ccc(Cl)c([N+](=O)[O-])c1` was 7.58%.

Regarding `Cc1ccc(CN2CC(C(=O)N(C)CC(=O)Nc3cccc(F)c3)CC2=O)cc1` (centres unmarked), the “hERG current change (%, negative = inhibition) at 1uM” value is recorded as 2.13%. To `COc1cc(/C=N/NC(=O)c2ccccn2)ccc1OC(=O)c1ccccc1Br` belongs 12%; to `COC(=O)C1=C[C@@H](C(=O)OC)[C@@H]2C3=C(C(=O)C2(C)C)[C@H](c2ccccc2)[C@@H]2C(=O)N(C)C(=O)[C@@H]2[C@@H]3C1`, 3.08%. The value for `CCS(=O)(=O)N1CCN(S(=O)(=O)c2ccc(Cl)s2)CC1` was 6.15%; that for `CSc1cccc(N2C(=O)C3CCCN3C2=S)c1` (centres unmarked) was 14.4%; that for `COc1ccccc1/C=C/C(=O)OCC(=O)N1CCc2ccccc21` was 11.8%.
